# The campaign covered roughly 150,000 compounds. About 540 (0.36%) showed an effect of 50% or more. The list shows a part of the results.
# Tested on: Plasmodium falciparum
# Assay: Primary screen in NF54 nanoGlo assay, in single point, at 2uM, 72h; a lower Z score goes with more inhibition
# Format: functional, Erythrocyte
# Settings: timepoint 72 hour
Compound,% Inhibition [%],Z score
CCn1cc(N(CC(C)C)C(=O)[C@H]2CCCO2)cn1,-12,1.5
COCCN1C(=O)CC(CC(=O)N2CCN(C)C[C@@H]2C(C)C)(c2ccccc2OC)C1=O (some centres not stated),6,-1.28
CCCc1ccc(C(=O)c2sc(-c3c(C)nc4ccccn34)nc2-c2cc(F)c(F)cc2Cl)cc1,1,-0.2
N#Cc1oc2ccccc2c1NC(=O)CN1CCCCC1,-6,1.03
Cc1ccc(S(=O)(=O)C(C#N)c2nc3ccccc3nc2N2CC(C)OC(C)C2)cc1 (configuration not stated),-7,1.37
CCc1ccc2c(c1)C(c1c(C)[nH]c3ccccc13)(c1c(C)[nH]c3ccccc13)C(=O)N2,-30,3.52
COCCN1CC(=O)N[C@H]2CN(Cc3ncc(C)c(OC)c3C)C[C@@H]2OCc2cccc(c2)Oc2cncc(c2)C1=O,6,-0.8
O=C(c1cnn(-c2ccccc2)n1)N1CCC(c2nnc(-c3ccc(F)cc3)o2)CC1,14,-1.84
O=C(CC1(O)CCC1)NC[C@H]1CCCc2ccc(C(=O)O)cc21,-10,1.37
C[C@@]1(C(=O)O)CCCN1Cc1ccc(Cl)cc1-n1cncn1,-10,1.32
Cc1ccc2sc(CS(=O)(=O)c3ccc(N4CCCC4=O)cc3)nc2c1,-5,0.68
Cc1cc(C(=O)N2CCC3(CC2)Cc2cccc(c2)Oc2cccc(c2)CCNC3=O)n(C)n1,-17,2.15
CC1CC(N2CCOCC2)CN1C(=O)c1ncn(C(C)(C)C)n1 (configuration not stated),-4,0.61
CCc1ccc(C(C)(C)CN=C(N)N(C)C)cc1,-10,1.14
O=C(c1cccc(-n2ccnc2)n1)N1CCO[C@H](c2ccc(F)cc2Cl)C1,11,-1.61
Cc1ccsc1-c1nc(CN2CCC[C@](C)(CO)C2)c(C)o1,-18,2.26
C[C@H]1CC(=O)Nc2ccccc2N1C(=O)CNCCc1ccccc1,1,-0.22
CC(O)CN(Cc1cccc(OC(F)(F)F)c1)C(C)CO (configuration not stated),-2,0.37
Cc1cc(Cl)cc2nc(N3CCCNCC3)oc12,8,-0.96
Cc1ccc(Nc2ccc(N3CCNCC3)nn2)nc1,47,-6.37
COc1cc(NC(=O)NCCS(=O)(=O)N(C)C)cc(C(F)(F)F)c1,-4,0.73

Compound,% Inhibition [%],Z score
C[C@@]1(C(=O)NCc2ccccc2)CCC(=O)N1Cc1ccccc1,-9,1.05
CCN(Cc1cc(Br)ccc1O)C(=O)[C@H]1CCn2cncc2C1,5,-0.51
O=C(CCc1ccccn1)Nc1cc(CCc2ccccc2)n[nH]1,7,-0.92
COc1cccc(CC(=O)N2CCC3(CC2)[C@@H](OC)CN3c2ccc(C)cc2)c1,-7,0.86
Cc1cc(N2CCCCS2(=O)=O)cc(C)c1S(=O)(=O)N1CCOCC1,-6,1.26
COc1ccc([C@@H](O)Cn2cnc(C(=O)NCc3ccc(Br)cc3)n2)cc1,2,-0.19
COCCN1C(=O)C[C@](CC(=O)N2CCC(C)CC2)(c2cccc(OC)c2)C1=O,3,-0.47
Cc1ccccc1CNC(=O)CN1CCN(CCO)[C@@H]2CS(=O)(=O)C[C@@H]21,-9,1.18
O=C(CN1CCCc2nc(-c3ccccc3)ncc2C1=O)NCC1CC1,2,-0.33
CN1C[C@H](NCc2cccc3c2OCO3)CCC[C@@H](C(=O)NCc2cc(F)cc(F)c2)CC1=O,-7,0.91
COc1ccccc1OCC(=O)N1CC[C@@](O)(C2CCOCC2)[C@H](C)C1,-10,1.94
Cc1cc(OCC(=O)N2CCN(c3ccc(F)cc3)CC2)nc2c1c(C)nn2C,-15,1.63
CCCCS(=O)(=O)N=C1NCN(c2ccc(Cl)cc2)CN1,-1,0.28
OC1CC(C2CCCCC2)N(CCc2ccncc2)C1 (configuration not stated),-8,1.08
CC(C)(C)OC(=O)N1CCN(CCF)CCN(CCF)CC1,2,-0.3
CC(C)(C)NS(=O)(=O)c1cc(N)ccc1F,-5,0.92
Cc1ccc(C)c(S(=O)(=O)NCCc2cnn(-c3ccccc3)c2)c1,-6,0.86
COc1ccccc1[C@H](C)NC(=O)Cn1cnc2c1CCNC21CCOCC1,-3,0.52
CN(C)CCNS(=O)(=O)Cc1ccccc1,-9,1.64
O[C@]1(CN2CCCC2)COCCN(c2nccc(C(F)(F)F)n2)C1,-1,0.08
